In the supplement of paper PMC4967469:
The IC50 comes from the fitted curve, where viability falls to half of the control; a limit (>, <) means that the fit lies beyond the doses tested. AUC, from the same fit, is the share of area under the viability curve across the 256-fold dose range; the more sensitive the line, the further below 1. For part of these data: An inferred top dose comes from the curve model; the source does not state it. For part of these data: Drugs with an entry number were screened twice under separate entries, and the two screens often disagree.

Legend:
Experiment in all cases: Viability of human cancer cell lines after 72 h of drug (GDSC screen)
[1] = compound: Cc1c(N)nc([C@H](CC(N)=O)NC[C@H](N)C(N)=O)nc1C(=O)N[C@H](C(=O)N[C@H](C)[C@@H](O)[C@H](C)C(=O)N[C@H](C(=O)NCCc1nc(-c2nc(C(=O)NCCC[S+](C)C)cs2)cs1)[C@@H](C)O)[C@@H](OC1OC(CO)C(O)C(O)C1OC1OC(CO)C(O)C(OC(N)=O)C1O)c1cnc[nH]1 [Bleomycin]
Description: (§1)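 Human cancer cell lines in 384-well plates, medium with 10% serum, drug for 72 h over a 256-fold dose range (nine 2-fold or five 4-fold steps up to the top dose). Adherent lines were fixed and stained with the nucleic acid dye Syto60, suspension lines read with resazurin; signal relative to control wells, capped at 0 and 100%. One two-parameter sigmoid per drug and line, fitted in a mixed model over all curves with the slope shared within a line.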

[2] = compound: CC/C(=C(\c1ccccc1)c1ccc(OCCN(C)C)cc1)c1ccccc1 [Tamoxifen]; conditions: top dose 5 µM
Description: as §1

[3] = compound: CN(NC(=O)CC(=O)NN(C)C(=S)c1ccccc1)C(=S)c1ccccc1 [Elesclomol]; conditions: top dose 0.2 µM; top dose inferred
Description: as §1

[4] = compound: COc1cc(N2CCC(C(N)=O)CC2)ccc1Nc1nc(N)c(Cl)c(Nc2ccccc2S(=O)(=O)C(C)C)n1 [HG-5-88-01]; conditions: top dose 10 µM; top dose inferred
Description: as §1

[5] = compound: O=S(=O)(O)c1ccc2cc(N=Nc3cc(S(=O)(=O)O)c4cccnc4c3O)ccc2c1 [NSC-87877]; conditions: top dose 16 µM; top dose inferred
Description: as §1

[6] = compound: Cc1ccc(NC(=O)c2ccc(CN3CCN(C)CC3)cc2)cc1Nc1nc(-c2cccnc2)cs1 [Masitinib]; conditions: top dose 20 µM
Description: as §1

[7] = compound: CCCC(=O)OCc1ccc(OC(=O)/C=C(C)/C=C/C=C(C)/C=C/C2=C(C)CCCC2(C)C)cc1 [VNLG/124]; conditions: top dose 5.12 µM; top dose inferred
Description: as §1

[8] = compound: O=C(Nc1cccc(Nc2ncc(Br)c(NCCc3cnc[nH]3)n2)c1)N1CCCC1 [BX-912]; conditions: top dose 10.24 µM; top dose inferred
Description: as §1

[9] = compound: O=C(Nc1ccc(OC(F)(F)F)cc1)c1sccc1NCc1ccnc2ccccc12 [OSI-930]; conditions: top dose 10.24 µM
Description: as §1

[10] = compound: O=C(/C=C/c1ccc(CN(CCO)CCc2c[nH]c3ccccc23)cc1)NO [LAQ824]; conditions: top dose 1.024 µM; top dose inferred
Description: as §1

[11] = top dose 50 µM, screen: GDSC drug entry 1378, top dose inferred
[12] = top dose 64 µM, screen: GDSC drug entry 190

Row | Cell Line | AUC [1, 11] | IC50 [1, 11] [µM] | AUC [2] | IC50 [2] [µM] | AUC [3] | IC50 [3] [µM] | AUC [4] | IC50 [4] [µM] | AUC [5] | IC50 [5] [µM] | AUC [6] | IC50 [6] [µM] | AUC [7] | IC50 [7] [µM] | AUC [8] | IC50 [8] [µM] | AUC [1, 12] | IC50 [1, 12] [µM] | AUC [9] | IC50 [9] [µM] | AUC [10] | IC50 [10] [µM]
1 | CL-34 (large intestine, adherent) | 0.853 | 45.4 | 0.986 | > 5 | 0.982 | > 0.2 | 0.879 | > 10 | – | – | – | – | – | – | – | – | – | – | – | – | – | –
2 | DIFI (large intestine, adherent) | 0.981 | > 50 | 0.963 | > 5 | 0.952 | > 0.2 | 0.904 | > 10 | – | – | – | – | – | – | – | – | – | – | – | – | – | –
3 | EW-22 (Ewing sarcoma, adherent) | 0.428 | 2.01 | 0.987 | > 5 | 0.778 | 0.0779 | 0.861 | 7.92 | – | – | – | – | – | – | – | – | – | – | – | – | – | –
4 | H2804 (mesothelioma, adherent) | – | – | 0.984 | > 5 | – | – | 0.914 | > 10 | 0.973 | > 16 | 0.85 | 17.4 | 0.984 | > 5.12 | 0.868 | > 10.2 | 0.781 | 29.2 | 0.932 | > 10.2 | 0.504 | 0.0658
5 | HT-1197 (bladder, adherent) | 0.481 | 2.75 | 0.938 | > 5 | – | – | 0.89 | > 10 | 0.977 | > 16 | 0.98 | > 20 | 0.981 | > 5.12 | 0.983 | > 10.2 | 0.458 | 3.01 | 0.959 | > 10.2 | 0.4 | 0.0324
6 | Hs940-T (melanoma, adherent) | 0.764 | 21.9 | 0.981 | > 5 | – | – | 0.839 | 9.06 | 0.983 | > 16 | 0.764 | 8.74 | 0.983 | > 5.12 | 0.711 | 2.9 | – | – | 0.968 | > 10.2 | 0.477 | 0.0547
7 | Hs-445 (Hodgkin lymphoma, suspension) | 0.565 | 4.63 | 0.988 | > 5 | – | – | 0.985 | > 10 | 0.974 | > 16 | 0.883 | 18.5 | 0.989 | > 5.12 | 0.758 | 3.31 | 0.237 | 0.745 | 0.951 | > 10.2 | 0.386 | 0.032
8 | IM-95 (stomach, adherent) | 0.815 | 29.8 | 0.984 | > 5 | – | – | 0.962 | > 10 | 0.986 | > 16 | 0.915 | > 20 | 0.94 | > 5.12 | 0.898 | > 10.2 | 0.278 | 0.896 | 0.975 | > 10.2 | 0.274 | 0.0138
9 | IST-MES1 (mesothelioma, adherent) | 0.473 | 2.63 | 0.975 | > 5 | – | – | 0.952 | > 10 | 0.988 | > 16 | 0.97 | > 20 | 0.988 | > 5.12 | 0.948 | > 10.2 | 0.877 | > 64 | 0.983 | > 10.2 | 0.566 | 0.0969
10 | LB996-RCC (kidney, adherent) | 0.201 | 0.341 | 0.977 | > 5 | – | – | 0.902 | > 10 | 0.983 | > 16 | 0.98 | > 20 | 0.973 | > 5.12 | 0.973 | > 10.2 | 0.119 | < 0.25 | 0.973 | > 10.2 | 0.541 | 0.0846
11 | LNCaP-Clone-FGC (prostate, adherent) | 0.713 | 13.8 | 0.97 | > 5 | – | – | 0.981 | > 10 | 0.981 | > 16 | 0.809 | 12.3 | 0.977 | > 5.12 | 0.983 | > 10.2 | 0.7 | 16 | 0.932 | > 10.2 | 0.469 | 0.0521
12 | LOXIMVI (melanoma, semi-adherent) | 0.139 | 0.279 | 0.973 | > 5 | – | – | 0.943 | > 10 | 0.983 | > 16 | 0.881 | 16.9 | 0.99 | > 5.12 | 0.81 | 4.69 | 0.188 | 0.536 | 0.976 | > 10.2 | 0.214 | 0.0105
13 | MDA-MB-330 (breast, adherent) | 0.969 | > 50 | 0.977 | > 5 | – | – | 0.911 | > 10 | 0.98 | > 16 | 0.946 | > 20 | 0.956 | > 5.12 | 0.982 | > 10.2 | 0.631 | 9.7 | 0.966 | > 10.2 | 0.412 | 0.0354
14 | MFE-319 (endometrium, adherent) | 0.77 | 18.4 | 0.973 | > 5 | – | – | 0.965 | > 10 | 0.952 | > 16 | 0.901 | > 20 | 0.982 | > 5.12 | 0.958 | > 10.2 | 0.2 | 0.535 | 0.984 | > 10.2 | 0.482 | 0.0574
